# Data: PubChem BioAssay AID1631 (National Center for Advancing Translational Sciences (NCATS), 2009)
# The whole screen tested about 260,000 compounds, of which about 890 (0.34%) were called active. Inconclusive results, whose numbers are uncertain, are shown with a selection of clear calls. Calls follow the shape of the dose curve; as a rule, active = well fitted activation curve with a large enough effect; inconclusive = small, poorly fitted or top-dose-only effect; inactive = no such curve, though single readings can be large or run the other way. No potency is given beside an inconclusive call; the fits are too rough.
# Molecular target: Pyruvate kinase PKM (Homo sapiens) (UniProt P14618)
# Chain of UniProt P14618 (P14618 whole entry, looked up, canonical isoform): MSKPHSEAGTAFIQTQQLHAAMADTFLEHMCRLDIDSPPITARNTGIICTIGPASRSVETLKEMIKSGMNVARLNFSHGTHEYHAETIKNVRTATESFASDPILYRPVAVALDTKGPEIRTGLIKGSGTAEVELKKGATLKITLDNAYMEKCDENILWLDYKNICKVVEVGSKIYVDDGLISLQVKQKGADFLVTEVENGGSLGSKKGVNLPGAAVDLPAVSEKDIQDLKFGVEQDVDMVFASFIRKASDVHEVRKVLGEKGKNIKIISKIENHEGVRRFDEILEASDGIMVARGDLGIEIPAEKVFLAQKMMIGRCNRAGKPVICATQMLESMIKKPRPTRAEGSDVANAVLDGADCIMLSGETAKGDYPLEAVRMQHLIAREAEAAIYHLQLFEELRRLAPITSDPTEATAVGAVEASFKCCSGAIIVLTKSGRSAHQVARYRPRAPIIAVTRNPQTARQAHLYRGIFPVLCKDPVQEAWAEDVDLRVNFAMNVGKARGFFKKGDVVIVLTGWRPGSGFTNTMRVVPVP
# Test: qHTS Assay for Activators of Human Muscle isoform 2 Pyruvate Kinase; also: nearly all actives have a fitted effect of over 55% in size
# Settings: purified PKM2, Kinase-Glo ATP luminescence; Potency: activation; activation: at 57.5 µM (top of the series), 0% is enzyme alone, no compound
# Outline: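 Purified hPK-M2 (>95% pure) converted ADP (0.1 mM final) to ATP with 0.5 mM PEP in 50 mM imidazole pH7.2, KCl, MgCl2, Tween 20, BSA; 1 h at room temperature. ATP detected by Kinase-Glo luminescence.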
# Potency is read from the fitted curve at half-maximal effect; tags tell the direction and shape of the fitted curve.
row,Structure (SMILES),Potency
1,COC(=O)c1ccc(Oc2nc(N(C)C)nc(N3CCOCC3)n2)cc1,"inconclusive [rising, partial curve]"
2,CSc1ccc(CCNC(=O)CCc2nnc3ccc(NCCCN4CCCC4=O)nn23)cc1,inactive
3,COc1ccc(C2=CC(c3ccc(F)cc3)n3nnnc3N2)cc1 (stereo unspecified),"inconclusive [rising, single point]"
4,Cc1cccn2c(=O)c3cc(C(N)=S)c(=N)n(CCCOC(C)C)c3nc12,inactive
5,Nc1nc(N)c2cc(Sc3ccc4ccccc4c3)ccc2n1,"inconclusive [rising, single point]"
6,c1cncc(CSc2nnc3ccc(-c4ccco4)nn23)c1,"inconclusive [rising, partial curve]"
7,CCn1c(C)c(C)c2cc(C(=O)NCCc3ccco3)ccc21,active: 28.2 µM
8,Cn1c(NC(=O)c2cccc(Cn3cc(Cl)cn3)c2)nc2ccccc21,inactive
9,COc1ccc(S(=O)(=O)NCC2CCCN(C(=O)c3ccccc3)C2)cc1 (stereo unspecified),active: 2.51 µM
10,O=S(=O)(c1ccccc1)c1nc(NCc2cccnc2)sc1Cl,"inconclusive [rising, partial curve]"
11,O=c1[nH]c(-c2cccs2)nc2ccccc12,"inconclusive [rising, single point]"
12,CC(=O)N1N=C2/C(=C/c3ccccc3)CCCC2C1c1ccccc1 (stereo unspecified),inactive
13,CCC(C)(C)NC(=O)C1c2ccccc2Oc2ccccc21,"inconclusive [rising, single point]"
14,C=C(C)CN=c1scc(C)n1/N=C/c1ccco1,"inconclusive [rising, single point]"
15,O=C(Nc1ncc2c(n1)CC(c1ccco1)CC2=O)c1ccco1 (stereo unspecified),active: 28.2 µM
16,O=[N+]([O-])c1cc(Br)c(O)c(/C=N/Nc2nc3ccccc3s2)c1,"inconclusive [rising, partial curve]"
17,CCOc1cccc(=O)c2c(C)n(Cc3ccco3)c(C)c12,"inconclusive [rising, partial curve]"
18,Cc1nnc(SCC(=O)Nc2nsc(-c3ccc(C(C)(C)C)cc3)n2)s1,inactive
19,O=C1CC(c2ccc(O)c(O)c2)Oc2cc(O)cc(O)c21 (stereo unspecified),"inconclusive [rising, partial curve]"
20,Nc1nc(-c2ccco2)nn1S(=O)(=O)c1ccc(Cl)cc1,inactive
21,COC(=O)c1c(NC(=O)C2CCCCC2)sc2c1CC(C)(C)NC2(C)C,inactive
22,O=C1NC(c2ccccc2)C(C(=O)c2cccs2)C(O)(C(F)(F)F)N1 (stereo unspecified),inactive
23,Fc1ccc(C(c2nnnn2C2CCCCC2)N2CCCC2)cc1 (stereo unspecified),"inconclusive [rising, single point]"
24,Cc1cc(C(=O)OCC(=O)N2CCOCC2)c2ccccc2n1,active: 3.55 µM
25,O=C(NCC(O)c1ccccc1)c1ccc(Cl)c(S(=O)(=O)N2CCCCC2)c1 (stereo unspecified),inactive
26,CN(Cc1ccccc1)C(=O)COC(=O)Cn1cnc2ccccc21,"inconclusive [rising, single point]"

row,Structure (SMILES),Potency
1,CC(C)Nc1nc(NC(C)C)nc(OCCOC(=O)c2ccccc2)n1,"inconclusive [rising, single point]"
2,Cc1ccccc1NC(=O)CN1C(=O)S/C(=C\c2ccc(-c3cc(C(=O)O)ccc3C)o2)C1=O,"inconclusive [rising, single point]"
3,COc1ccc(S(=O)(=O)N2CCOCC2)cc1NC(=O)c1cccc2c(=O)c(C)c(-c3ccccc3)oc12,inactive
4,COc1cc([N+](=O)[O-])ccc1NC(=O)COC(=O)c1ccc(NC(N)=O)cc1,"inconclusive [rising, partial curve]"
5,COc1ccc(S(=O)(=O)c2ccc(OC)cc2)cc1,"inconclusive [rising, partial curve]"
6,CC(=O)Oc1ccc2c(=O)oc(-c3ccccc3C)nc2c1,"inconclusive [rising, single point]"
7,Oc1oc(-c2ccccc2)nc1C=Nc1ccccc1,inactive
8,COCCN(CCOC)c1nc(C)nc2c1nc(-c1ccccc1)n2CC1CCN(C)CC1,inactive
9,Cc1ccccc1CN1C[C@@H]2C[C@@H](c3cn(C)nc3-c3ccccc3)N3CCC[C@@]23C1=O,active: 5.62 µM
10,COc1ccc(C(=O)NCc2ccccc2OC)c(OC)c1,"inconclusive [rising, partial curve, poor fit]"
11,CCCCCCCCCCCCCCCCn1cc[n+](CC(C)=O)c1,inactive
12,COc1ccccc1CNS(=O)(=O)c1ccc2c(c1)oc(=O)n2C,"inconclusive [rising, partial curve]"
13,COC(=O)[C@H]1C[C@@H]1[C@H](NS(=O)(=O)c1ccc2ccccc2c1)c1ccccc1,"inconclusive [rising, single point]"
14,Cc1nc(NC(=O)c2ccccc2)sc1-c1csc(Nc2ccc(C(=O)O)cc2)n1,"inconclusive [rising, single point]"
15,COc1ccc(NC2=C(Cl)C(=O)N(c3ccccc3)C2=O)c(OC)c1,inactive
16,CC(C)n1c(SCC(=O)Nc2ccc3c(c2)OCO3)nc2c1c(=O)n(C)c(=O)n2C,inactive
17,O=C(NCCN1C(=O)S/C(=C/c2ccccc2)C1=O)C1CCCN1C(=O)c1cccs1 (stereo unspecified),"inconclusive [rising, single point]"
18,CCn1cc(C(=O)NCc2ccncc2)c(=O)c2cc(F)c(N3CCN(C(=O)c4ccco4)CC3)cc21,inactive
19,CCOC(=O)/C(C#N)=C/c1ccc(OC)c(OC)c1,"inconclusive [rising, single point]"
20,Cc1ccc(-n2cc(CNCCCN3CCCC3=O)c(-c3ccc(F)cc3)n2)cc1,"inconclusive [rising, single point]"
21,COc1ccc(S(=O)(=O)CCc2nc3ccccc3s2)cc1,"inconclusive [rising, single point]"
22,COCCCNC(=O)c1cccn2c(=O)c3cc4ccccc4cc3nc12,"inconclusive [rising, partial curve]"
23,CCOC(=O)N1CCN(S(=O)(=O)c2ccc(OCC)cc2)CC1,"inconclusive [rising, single point]"
24,CCN(CC)c1ccc(/C=C(/C#N)C(=O)NCc2ccccc2)o1,inactive
25,CCc1nn(C(C)C(=O)NC(C)CCc2ccco2)c(=O)c2cc3occc3n12 (stereo unspecified),"inconclusive [rising, single point]"
26,C=CCn1c(-c2ccc(N)cc2)nc2ccccc21,inactive

row,Structure (SMILES),Potency
1,Cn1c(N)c(S(=O)(=O)c2ccc(Br)cc2)c2nc3ccccc3nc21,active: 25.1 µM
2,CCn1c(C)nc2cc(-c3nnc(-c4c(-c5ccccc5)noc4C)o3)ccc21,inactive
3,Fc1cccc(CSc2ccc(-c3ccco3)nn2)c1,inactive
4,Cc1nc(S/C(=C/c2ccc(-c3cc(Cl)ccc3C)o2)C(=O)O)n[nH]1,"inconclusive [rising, partial curve, poor fit]"
5,NC(=S)Cc1ccccc1Cl,"inconclusive [rising, single point]"
6,CCN(CC)C(=O)CSc1nc2ccccc2c(=O)n1CCC(=O)NCc1ccc(F)cc1,inactive
7,O=[N+]([O-])c1ccc(C2Oc3ccccc3C3CC(c4ccccc4)=NN32)s1 (stereo unspecified),inactive
8,Cc1cc(C(=O)O)cc(S(=O)(=O)N2CCOCC2)c1C,"inconclusive [rising, single point]"
9,Cc1ccc(Sc2c([N+](=O)[O-])c(C)nn2C)cc1,"inconclusive [rising, single point]"
10,C/C(=N\NC(=O)CNc1ccccc1)c1ccccc1,"inconclusive [rising, single point]"
11,CCOC(=O)COc1ccc2ccccc2c1/C=C/[N+](=O)[O-],"inconclusive [rising, partial curve]"
12,COc1cc(C(=O)ON=C2C=C(C)C(=O)C(C)=C2)cc(OC)c1OC,inactive
13,COc1ccc(S(=O)(=O)N2CCCN(S(=O)(=O)c3ccc(OC)c(C)c3)CC2)cc1C,inactive
14,Cn1c(Cc2ccccc2)nnc1SCc1cc(=O)n2ccsc2n1,"inconclusive [rising, single point]"
15,CC1(OC(=O)CCc2ccccc2)C(=O)C=C2C=C(c3ccc(C#N)cc3)N(CCc3c[nH]c4ccccc34)C=C2C1=O (stereo unspecified),inactive
16,O=[N+]([O-])c1ccc(Sc2nnnn2-c2ccccc2)nc1,active: 17.8 µM
17,Cn1c(=O)c2c(nc(Sc3ncnn3CC(=O)N3CCOCC3)n2C)n(C)c1=O,inactive
18,O=C1C(Cc2c[nH]c3ccccc23)NC(=S)N1C1CCCCC1 (stereo unspecified),inactive
19,COC(=O)c1sc(C(C)(C)C)cc1CS(=O)(=O)c1ccc(Cl)cc1,"inconclusive [rising, single point]"
20,O=S(=O)(c1ccc(Cl)cc1)n1ccc2cccnc21,"inconclusive [rising, single point]"
21,Cc1ccc(OCc2nnc(SCC(=O)NCc3ccccc3)n2C)cc1,"inconclusive [rising, single point]"
22,O=C(Nc1cccc(S(=O)(=O)NC2=NCCC2)c1)c1cc(-c2ccco2)nc2ccccc12,"inconclusive [rising, single point]"
23,Cc1cc(C)c2cc(CN(Cc3ccco3)C(=O)NCc3ccccc3)c(=O)[nH]c2c1,"inconclusive [rising, partial curve]"
24,O=S(=O)(c1ccccc1)C1(C2CC(c3ccccc3)=NO2)CC(O)C1 (stereo unspecified),"inconclusive [rising, single point]"
